Results reported in publication PMC12820563.
The other results are listed elsewhere or left out. The list includes weakly bound sequences.

Target: T1, MBP-FoxP3dN (UniProt Q99JB6)
T1 sequence: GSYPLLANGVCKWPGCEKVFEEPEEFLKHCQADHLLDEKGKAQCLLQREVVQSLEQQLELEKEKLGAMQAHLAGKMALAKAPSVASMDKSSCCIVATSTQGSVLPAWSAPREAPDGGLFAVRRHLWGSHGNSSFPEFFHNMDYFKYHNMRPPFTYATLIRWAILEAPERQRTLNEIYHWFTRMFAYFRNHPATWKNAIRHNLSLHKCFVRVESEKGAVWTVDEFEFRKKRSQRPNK
Experiment: PD-seq (MBP pull-down with sequencing)
Conditions: 20 mM Tris-HCl pH 7.5, 100 mM NaCl, 1.5 mM MgCl2, 0.4 uM protein, 0.1 uM dsDNA library, 30 min, room temperature, amylose pull-down; high values mean tight binding; double strand, one strand shown

Sequence	binding signal (RPM ratio (pull-down/input))
GATGATTGTTCTCCCAGCTGATGAATTTGGCACTTCGAGTAAACAAATTTTCCTAATCTTTCTGTTCAAGCGCCATCTAC	1.06
GATGATTGTTCTCCCAGCTGATGAATTGTCTCTTTCGAGTAAACAAATTTTCCTAATCTTTCTGTTCAAGCGCCATCTAC	0.475
GATGATTGTTCTCCCAGCTGATGAATTGAGTCAATCGAGTAAACAAATTTTCCTAATCTTTCTGTTCAAGCGCCATCTAC	0.387
GATGATTGTTCTCCCAGCTGATGAATTCCGCTCATCGAGTAAACAAATTTTCCTAATCTTTCTGTTCAAGCGCCATCTAC	0.571
GATGATTGTTCTCCCAGCTGATGAATTGTGAGTGTCGAGTAAACAAATTTTCCTAATCTTTCTGTTCAAGCGCCATCTAC	2.88
GATGATTGTTCTCCCAGCTGATGAATTCCGGTGATCGAGTAAACAAATTTTCCTAATCTTTCTGTTCAAGCGCCATCTAC	0.44
GATGATTGTTCTCCCAGCTGATGAATTAGAAACGTCGAGTAAACAAATTTTCCTAATCTTTCTGTTCAAGCGCCATCTAC	0.305
GATGATTGTTCTCCCAGCTGATGAATTAATAGGATCGAGTAAACAAATTTTCCTAATCTTTCTGTTCAAGCGCCATCTAC	0.284
GATGATTGTTCTCCCAGCTGATGAATTAGAAGCATCGAGTAAACAAATTTTCCTAATCTTTCTGTTCAAGCGCCATCTAC	0.694
GATGATTGTTCTCCCAGCTGATGAATTCCATAGATCGAGTAAACAAATTTTCCTAATCTTTCTGTTCAAGCGCCATCTAC	0.239
GATGATTGTTCTCCCAGCTGATGAATTAGGGCTATCGAGTAAACAAATTTTCCTAATCTTTCTGTTCAAGCGCCATCTAC	0.609
GATGATTGTTCTCCCAGCTGATGAATTGGTGCTATCGAGTAAACAAATTTTCCTAATCTTTCTGTTCAAGCGCCATCTAC	0.891
GATGATTGTTCTCCCAGCTGATGAATTTTGAGTTTCGAGTAAACAAATTTTCCTAATCTTTCTGTTCAAGCGCCATCTAC	1.6
GATGATTGTTCTCCCAGCTGATGAATTAACGTGATCGAGTAAACAAATTTTCCTAATCTTTCTGTTCAAGCGCCATCTAC	0.414
GATGATTGTTCTCCCAGCTGATGAATTAAGGTTGTCGAGTAAACAAATTTTCCTAATCTTTCTGTTCAAGCGCCATCTAC	0.807
GATGATTGTTCTCCCAGCTGATGAATTTAAGTCTTCGAGTAAACAAATTTTCCTAATCTTTCTGTTCAAGCGCCATCTAC	0.457
GATGATTGTTCTCCCAGCTGATGAATTTAAAGTATCGAGTAAACAAATTTTCCTAATCTTTCTGTTCAAGCGCCATCTAC	0.501
GATGATTGTTCTCCCAGCTGATGAATTCTTTTCATCGAGTAAACAAATTTTCCTAATCTTTCTGTTCAAGCGCCATCTAC	0.33
GATGATTGTTCTCCCAGCTGATGAATTCATGGTGTCGAGTAAACAAATTTTCCTAATCTTTCTGTTCAAGCGCCATCTAC	1.3
GATGATTGTTCTCCCAGCTGATGAATTTAATTAGTCGAGTAAACAAATTTTCCTAATCTTTCTGTTCAAGCGCCATCTAC	2.64
GATGATTGTTCTCCCAGCTGATGAATTGCAACGCTCGAGTAAACAAATTTTCCTAATCTTTCTGTTCAAGCGCCATCTAC	1.21

Sequence	binding signal (RPM ratio (pull-down/input))
GATGATTGTTCTCCCAGCTGATGAATTTCGGAATTCGAGTAAACAAATTTTCCTAATCTTTCTGTTCAAGCGCCATCTAC	0.657
GATGATTGTTCTCCCAGCTGATGAATTAAATCAGTCGAGTAAACAAATTTTCCTAATCTTTCTGTTCAAGCGCCATCTAC	0.256
GATGATTGTTCTCCCAGCTGATGAATTATCTCTGTCGAGTAAACAAATTTTCCTAATCTTTCTGTTCAAGCGCCATCTAC	0.24
GATGATTGTTCTCCCAGCTGATGAATTTCCGGCCTCGAGTAAACAAATTTTCCTAATCTTTCTGTTCAAGCGCCATCTAC	0.336
GATGATTGTTCTCCCAGCTGATGAATTCAACGCTTCGAGTAAACAAATTTTCCTAATCTTTCTGTTCAAGCGCCATCTAC	0.458
GATGATTGTTCTCCCAGCTGATGAATTACTCGAGTCGAGTAAACAAATTTTCCTAATCTTTCTGTTCAAGCGCCATCTAC	0.248
GATGATTGTTCTCCCAGCTGATGAATTCCTAGGATCGAGTAAACAAATTTTCCTAATCTTTCTGTTCAAGCGCCATCTAC	0.204
GATGATTGTTCTCCCAGCTGATGAATTACGGTGGTCGAGTAAACAAATTTTCCTAATCTTTCTGTTCAAGCGCCATCTAC	0.504
GATGATTGTTCTCCCAGCTGATGAATTACACGTGTCGAGTAAACAAATTTTCCTAATCTTTCTGTTCAAGCGCCATCTAC	0.73
GATGATTGTTCTCCCAGCTGATGAATTCTCAGTTTCGAGTAAACAAATTTTCCTAATCTTTCTGTTCAAGCGCCATCTAC	0.32
GATGATTGTTCTCCCAGCTGATGAATTCGAGCGTTCGAGTAAACAAATTTTCCTAATCTTTCTGTTCAAGCGCCATCTAC	1.05
GATGATTGTTCTCCCAGCTGATGAATTTTGTTCGTCGAGTAAACAAATTTTCCTAATCTTTCTGTTCAAGCGCCATCTAC	1.45
GATGATTGTTCTCCCAGCTGATGAATTGACAACTTCGAGTAAACAAATTTTCCTAATCTTTCTGTTCAAGCGCCATCTAC	0.645
GATGATTGTTCTCCCAGCTGATGAATTAGTTCGCTCGAGTAAACAAATTTTCCTAATCTTTCTGTTCAAGCGCCATCTAC	0.39
GATGATTGTTCTCCCAGCTGATGAATTTCTTCTTTCGAGTAAACAAATTTTCCTAATCTTTCTGTTCAAGCGCCATCTAC	0.221
GATGATTGTTCTCCCAGCTGATGAATTCATTCATTCGAGTAAACAAATTTTCCTAATCTTTCTGTTCAAGCGCCATCTAC	0.323
GATGATTGTTCTCCCAGCTGATGAATTCAGGCTATCGAGTAAACAAATTTTCCTAATCTTTCTGTTCAAGCGCCATCTAC	0.527
GATGATTGTTCTCCCAGCTGATGAATTTGTCATCTCGAGTAAACAAATTTTCCTAATCTTTCTGTTCAAGCGCCATCTAC	6.03
GATGATTGTTCTCCCAGCTGATGAATTCAGCGGTTCGAGTAAACAAATTTTCCTAATCTTTCTGTTCAAGCGCCATCTAC	0.48
GATGATTGTTCTCCCAGCTGATGAATTTCACTGGTCGAGTAAACAAATTTTCCTAATCTTTCTGTTCAAGCGCCATCTAC	0.282
GATGATTGTTCTCCCAGCTGATGAATTCAATCAGTCGAGTAAACAAATTTTCCTAATCTTTCTGTTCAAGCGCCATCTAC	0.321

Sequence	binding signal (RPM ratio (pull-down/input))
GATGATTGTTCTCCCAGCTGATGAATTTAAACGCTCGAGTAAACAAATTTTCCTAATCTTTCTGTTCAAGCGCCATCTAC	0.381
GATGATTGTTCTCCCAGCTGATGAATTGGATGTGTCGAGTAAACAAATTTTCCTAATCTTTCTGTTCAAGCGCCATCTAC	1.83
GATGATTGTTCTCCCAGCTGATGAATTATGCGGCTCGAGTAAACAAATTTTCCTAATCTTTCTGTTCAAGCGCCATCTAC	1.5
GATGATTGTTCTCCCAGCTGATGAATTTTGCGTGTCGAGTAAACAAATTTTCCTAATCTTTCTGTTCAAGCGCCATCTAC	5.56
GATGATTGTTCTCCCAGCTGATGAATTACGATTTTCGAGTAAACAAATTTTCCTAATCTTTCTGTTCAAGCGCCATCTAC	0.842
GATGATTGTTCTCCCAGCTGATGAATTGTGACCGTCGAGTAAACAAATTTTCCTAATCTTTCTGTTCAAGCGCCATCTAC	0.687
GATGATTGTTCTCCCAGCTGATGAATTGTGGTAATCGAGTAAACAAATTTTCCTAATCTTTCTGTTCAAGCGCCATCTAC	1.1
GATGATTGTTCTCCCAGCTGATGAATTTGTAACTTCGAGTAAACAAATTTTCCTAATCTTTCTGTTCAAGCGCCATCTAC	1.47
GATGATTGTTCTCCCAGCTGATGAATTCACACAATCGAGTAAACAAATTTTCCTAATCTTTCTGTTCAAGCGCCATCTAC	0.448
GATGATTGTTCTCCCAGCTGATGAATTCTAAGATTCGAGTAAACAAATTTTCCTAATCTTTCTGTTCAAGCGCCATCTAC	0.232
GATGATTGTTCTCCCAGCTGATGAATTTAGAGGATCGAGTAAACAAATTTTCCTAATCTTTCTGTTCAAGCGCCATCTAC	0.299
GATGATTGTTCTCCCAGCTGATGAATTTCCCACTTCGAGTAAACAAATTTTCCTAATCTTTCTGTTCAAGCGCCATCTAC	0.261
GATGATTGTTCTCCCAGCTGATGAATTCTCCCATTCGAGTAAACAAATTTTCCTAATCTTTCTGTTCAAGCGCCATCTAC	0.243
GATGATTGTTCTCCCAGCTGATGAATTATCCGATTCGAGTAAACAAATTTTCCTAATCTTTCTGTTCAAGCGCCATCTAC	0.279
GATGATTGTTCTCCCAGCTGATGAATTTTACAGCTCGAGTAAACAAATTTTCCTAATCTTTCTGTTCAAGCGCCATCTAC	0.304
GATGATTGTTCTCCCAGCTGATGAATTTGAAATCTCGAGTAAACAAATTTTCCTAATCTTTCTGTTCAAGCGCCATCTAC	0.298
GATGATTGTTCTCCCAGCTGATGAATTCGGCCGATCGAGTAAACAAATTTTCCTAATCTTTCTGTTCAAGCGCCATCTAC	0.438
GATGATTGTTCTCCCAGCTGATGAATTTATCTGTTCGAGTAAACAAATTTTCCTAATCTTTCTGTTCAAGCGCCATCTAC	0.835
GATGATTGTTCTCCCAGCTGATGAATTGGTGGACTCGAGTAAACAAATTTTCCTAATCTTTCTGTTCAAGCGCCATCTAC	0.694
GATGATTGTTCTCCCAGCTGATGAATTCGACAGGTCGAGTAAACAAATTTTCCTAATCTTTCTGTTCAAGCGCCATCTAC	0.284
GATGATTGTTCTCCCAGCTGATGAATTGTCCACGTCGAGTAAACAAATTTTCCTAATCTTTCTGTTCAAGCGCCATCTAC	0.337
